PMC4336329 (PLoS ONE, 2015)
Screen size: about 310,000 compounds; about 14,000 (4.5%) showed an effect of 50% or more. The effect is printed as a negative number. The list shows a part of the results.

Each compound was assayed against human ether-à-go-go-related gene (hERG) potassium channel (human, UniProt Q12809) (assay: primary screen, population patch clamp on CHO cells stably expressing hERG).
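Further: peak tail current of the secondary pulse compared with the same well before compound.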

Chain of human ether-à-go-go-related gene (hERG) potassium channel (Q12809 whole entry, looked up): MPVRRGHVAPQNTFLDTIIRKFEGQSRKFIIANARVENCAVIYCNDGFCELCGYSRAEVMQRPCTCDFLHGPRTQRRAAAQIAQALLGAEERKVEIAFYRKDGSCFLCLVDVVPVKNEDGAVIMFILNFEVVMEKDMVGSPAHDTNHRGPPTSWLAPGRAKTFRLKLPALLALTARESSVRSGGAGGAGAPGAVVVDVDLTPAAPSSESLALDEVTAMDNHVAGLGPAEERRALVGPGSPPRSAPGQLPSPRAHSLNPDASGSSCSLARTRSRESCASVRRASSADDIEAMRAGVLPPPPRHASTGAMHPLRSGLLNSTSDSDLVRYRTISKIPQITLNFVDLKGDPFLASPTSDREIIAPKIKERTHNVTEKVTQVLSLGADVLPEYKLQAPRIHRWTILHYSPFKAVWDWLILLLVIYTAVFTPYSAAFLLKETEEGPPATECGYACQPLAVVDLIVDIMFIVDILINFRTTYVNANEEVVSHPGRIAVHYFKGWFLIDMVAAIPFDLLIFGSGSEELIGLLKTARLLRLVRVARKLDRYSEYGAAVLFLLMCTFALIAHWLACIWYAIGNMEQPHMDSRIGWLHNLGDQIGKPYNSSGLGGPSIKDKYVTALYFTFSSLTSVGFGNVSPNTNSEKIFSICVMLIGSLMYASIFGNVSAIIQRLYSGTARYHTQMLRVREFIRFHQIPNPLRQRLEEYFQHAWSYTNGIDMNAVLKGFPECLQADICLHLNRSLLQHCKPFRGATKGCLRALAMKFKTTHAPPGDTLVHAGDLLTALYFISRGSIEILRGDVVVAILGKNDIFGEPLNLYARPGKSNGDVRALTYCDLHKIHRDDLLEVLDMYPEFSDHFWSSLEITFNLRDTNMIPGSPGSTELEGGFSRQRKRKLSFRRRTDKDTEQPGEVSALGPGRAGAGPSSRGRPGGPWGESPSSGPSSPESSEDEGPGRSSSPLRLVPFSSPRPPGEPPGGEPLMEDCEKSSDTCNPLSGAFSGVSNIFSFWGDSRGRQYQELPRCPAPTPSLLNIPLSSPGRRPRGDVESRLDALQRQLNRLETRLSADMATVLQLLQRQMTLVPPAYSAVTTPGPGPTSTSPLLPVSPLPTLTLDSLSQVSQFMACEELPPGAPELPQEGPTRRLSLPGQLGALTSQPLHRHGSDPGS

SMILES | hERG current change (%, negative = inhibition) at 10uM [%]
CN(CC(=O)O)S(=O)(=O)c1cc(Cl)ccc1Cl | -2.81
Cc1cc(=O)oc(C)c1C(=O)NCCCN1C(C)CCCC1C (stereo not shown) | 18
COc1ccc(OCCNS(=O)(=O)c2cccc([N+](=O)[O-])c2)cc1 | -5.23
Cc1cc(Oc2cc(NN3CCCCC3)c([N+](=O)[O-])cc2[N+](=O)[O-])c(C(=O)c2ccccc2)cc1Cl | 3.03
Cl.N=C(N)SCP(=O)(c1ccccc1)c1ccccc1 | 14.1
Cc1cc(OCC(=O)NCc2ccc(S(N)(=O)=O)cc2)c2c3c(c(=O)oc2c1)CCC3 | 15.8
C=CCNc1nc(=S)[nH]c2cc(OC)c(OC)cc12 | 4.38
CCCOc1ccc(C2C3=C(Nc4nc(N)[nH]c(=O)c42)c2ccccc2C3=O)cc1 (stereo not shown) | -3.23
COc1ccc(CCNC(=O)C(=O)NCc2ccccc2)cc1OC | 9.59
O=C(Cc1ccc(Cl)cc1)NCCS(=O)(=O)N1CCN(c2ccccc2F)CC1 | -10.6
Cc1cc(NC(=O)c2cccnc2Cl)ccc1NC(=O)c1cc2ccccc2o1 | 25.4
O=C1CCC(=O)N(O)CCCCCNC(=O)CCC(=O)N(O)CCCCNC(=O)CCC(=O)N(O)CCCCCN1 | 11.6
COc1ccccc1CC(=O)NC1CCCc2ccccc21 (stereo not shown) | -32.8
CCCCc1cc(=O)oc2cc(O)ccc12 | -30.3
CCOc1ccc(NC(=O)COC(=O)c2ccc3c(c2)OCCO3)cc1 | 9.29
CCOc1ccccc1C1CC(=O)Nc2cc3c(cc21)OCCO3 (stereo not shown) | -2.02
O=C(c1ccc([N+](=O)[O-])cc1)n1nc(-c2ccccc2)nc1NCc1ccccc1 | -4.24
COc1ccc(/C=N/OCC(=O)NC(c2ccccc2)c2ccccc2)c(OC)c1 | -35.1
N#CCC(=O)NC(=O)NCC1CC1 | 1.74
O=C(COc1ccccc1Cl)Nc1ccc(C(=O)O)cc1NC(=O)COc1ccccc1Cl | 16.4
CCN(CC)c1ccc(/C=N/NS(=O)(=O)c2ccc(C)c([N+](=O)[O-])c2)cc1 | 8.95
CC(CCc1ccccc1)NC(=O)COC(=O)c1ccc(NC(=O)CC#N)cc1 (stereo not shown) | 7.38

SMILES | hERG current change (%, negative = inhibition) at 10uM [%]
O=S(=O)(Nc1ccc(OC(F)(F)F)cc1)c1cccc2nonc12 | 9.33
COc1ccc(-c2nnn(CC(=O)N(CC(=O)NCCC(C)C)Cc3cccs3)n2)cc1OC | -26.8
Cc1ccc2c(c1)CCCN2C(=O)c1ccco1 | 0.562
COc1ccc(OC)c(NC(=O)c2c3c(nc4ccccc24)CCC3)c1 | -21.8
CC1=CC(=O)C=C(C)C1=NOC(=O)/C=C\c1ccccc1 | 15.9
CSc1nc2c(c(-c3ccc(O)cc3)c1C#N)CCC2 | 12.6
O=[N+]([O-])c1cccc(/C=C2\CCC(/C=N/Nc3ccc4ccccc4n3)=C2N2CCOCC2)c1 | 7.73
COC(=O)Nc1c(C(=O)OC)cc(OC)c(OC)c1OC | -1.17
C/C=C(\C)CN1CCC(n2nccc2NC(=O)CCc2ccccc2)CC1 | -28.9
CC(=O)NCC(=O)N1CCC(n2nccc2NC(=O)CCCc2ccccc2)CC1 | -17.7
CC(=O)Oc1cccc(N2C(=O)C3CC=C(Cl)CC3C2=O)c1 (stereo not shown) | -2.74
Cc1ccccc1N1CCN(C(=O)CCN2C(=O)c3ccccc3C2=O)CC1 | -23.5
COc1ccc(N2CCN(S(=O)(=O)c3ccc(C(=O)NCc4ccco4)cc3)CC2)cc1 | -3.45
Cc1ccc(N2C(=O)NC(NS(=O)(=O)c3ccc(C)cc3)(C(F)(F)F)C2=O)cc1 (stereo not shown) | -4.62
C/C(N)=C(/C#N)C(=O)COC(=O)COc1ccc(Cl)cc1C | -1.55
Cl.NC(CC(=O)O)c1ccc(F)cc1 (stereo not shown) | 3.15
COc1ccc(N2CCN(C(=O)COC(=O)CNC(=O)c3ccc(C)cc3)CC2)cc1 | -21.3
NC(=O)N1N=C2/C(=C/c3ccccc3)CCCC2C1c1ccccc1 (stereo not shown) | -17.1
COc1cccc(/C=C(\CC(=O)O)c2nc3ccccc3s2)c1 | 11.6
COc1ccccc1CP(=O)(c1ccccc1)c1ccccc1 | -6.07
COCCn1c(Cc2ccccc2)nnc1SC(C)C(=O)NC1CC1 (stereo not shown) | -22.4
